Experimental data reported in the supplement of paper PMC3334620.
Whole data set: some 33,000 sequences, median “E-score (-0.5 to 0.5)” near -0.013, cut for the highest 2% near 0.3. This is one part of the list.

Each sequence was assayed against T1, Msn1 (UniProt P22148) (assay: PBM E-score (8-mer binding enrichment) (E-score (-0.5 to 0.5)); higher = stronger / more preferred TF binding; most listed sequences are background and not binding sites). Settings: protein concentration: 200 nM; construct: GST-full length.
T1 sequence: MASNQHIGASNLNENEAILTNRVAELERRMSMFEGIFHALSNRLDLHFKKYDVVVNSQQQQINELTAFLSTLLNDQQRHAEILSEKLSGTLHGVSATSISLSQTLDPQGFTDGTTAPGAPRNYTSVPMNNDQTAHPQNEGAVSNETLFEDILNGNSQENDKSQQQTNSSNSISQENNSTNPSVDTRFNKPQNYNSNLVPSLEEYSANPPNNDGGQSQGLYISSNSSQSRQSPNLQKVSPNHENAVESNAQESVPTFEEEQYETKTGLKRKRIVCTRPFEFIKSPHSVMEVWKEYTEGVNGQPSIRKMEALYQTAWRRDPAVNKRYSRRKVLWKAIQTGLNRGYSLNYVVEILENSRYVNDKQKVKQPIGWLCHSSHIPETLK
In short: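 Yeast transcription factors, full-length or as DNA-binding domains, were expressed with a GST tag using PURExpress in vitro transcription/translation. At about 100-200 nM they were applied to universal all-10-mer Agilent arrays, double-stranded by primer extension on fresh or once-stripped slides. Fluorescent anti-GST detected bound protein, and masliner normalised the scans. E-scores for ungapped eight-base words, pooled with reverse complements, came from the Universal PBM Analysis Suite.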

Sequence	PBM E-score
TACGGCGA	-0.0274
CCTATAAC	0.00773
CCGAGTAC	-0.0145
ACTCCCTG	-0.28
GGGGGCAA	-0.266
CAGACCTC	-0.125
AAGTCGTA	0.0748
ATATATCG	0.141
CAGGGCAA	-0.0169
AGTCAACA	0.0311
AAAAGTCT	0.269
AACGTAAC	-0.0335
CATCAAGA	0.0145
TGAATACA	0.173
AGCGACAG	0.0951
AGCATGGA	-0.133
CAAAATAG	0.025
GTCGCCGA	0.0541
AACCCGTC	-0.142
GCAGTAAC	-0.177
ATACTCTA	-0.0893
AAAAACTA	0.175
GAGACACA	0.272
ACTTCAAC	0.0598
CGTGTGGA	-0.149

Sequence	PBM E-score
TAGCCGAA	0.0236
TACCGCTA	-0.116
TCACTAGA	0.0764
CTTAGTCC	0.0798
AGAACCGC	0.0757
AGACACTC	0.0424
CAGTAATG	-0.0728
ACACCCAC	-0.0452
CCTCGGCC	-0.0291
CGTTATAC	-0.0611
AGTAACTA	0.00829
CAAATAAG	0.05
CATTCAAC	0.0646
ATTAGATG	0.207
TTAAAGAA	0.197
CATCCGGC	-0.0374
TAAGGGAA	-0.05
ACCAAACT	-0.0813
ACCATGAA	0.13
GTGCATAA	0.0358
GTGGTCCA	0.0746
CGGGCGCC	-0.0285
ATGCCAGA	0.0266
AGTTGGCC	-0.159
GCTTCCAC	-0.128

Sequence	PBM E-score
GCCCAAGA	-0.0404
AAGATCCT	0.164
AATTGAGG	-0.0214
ATATATCA	0.0451
ACCGCCTC	-0.193
ACAGATCT	0.0457
AAGGTCGC	-0.181
CTATTCAG	0.0155
AAGGCAAC	-0.0117
ACGGGACA	0.384
CAGATTTA	0.197
GCTGTAAC	0.127
AATCACCC	0.157
AGAGGGGC	-0.249
AAAGATAC	0.0266
AGTTTAGA	0.0872
AGGTGGAA	0.0843
CCTATAAG	-0.145
ACAGATCC	0.0784
ACAAGTCG	0.0205
AAACACGT	-0.0326
AATCAATT	0.0557
AGGCACTA	-0.16
AGGATACC	-0.0528
ATACGTCC	0.146

Sequence	PBM E-score
AGCTAGCG	-0.214
CTCGGCAA	0.0915
ACCGAAGA	0.103
CAAGCAAC	0.0358
AATTCTAG	0.0838
ATTGGCTA	-0.0374
GTAACGTA	0.0421
CTTTATCC	0.0812
CTCTGGCC	-0.261
ATGATACG	0.0521
GTGACCAA	0.133
AGATTTCG	-0.00257
CATTTCTA	0.248
AGAGTTGA	0.091
GAACCCAC	-0.0538
TGTACCAA	0.328
ACCGGCCG	-0.0174
GAAGTCCC	-0.0665
GACGGGAA	-0.00407
CTGCTGGA	-0.0693
CCATGACA	0.294
CAGTATCG	-0.0345
ACAAGCCA	0.0835
ACCTATTA	-0.0249
ATAAACTC	0.156

Sequence	PBM E-score
CGGCAAGC	-0.059
CCGCACAG	-0.0231
ATTCATAA	0.12
CTCGTGCC	-0.246
AGGCAATG	-0.0429
CCCTGGCG	-0.153
ATATCCTC	-0.0444
AGGGTGAC	-0.00567
CTATATCC	-0.181
GACCTTAA	-0.0217
CAACTTGG	0.0103
AGGGTGAG	-0.342
AGAGTACT	0.114
CGACATTC	0.332
AAGGGGTC	-0.189
GCAGACGC	0.016
GAGGTACA	0.213
AACTGAAT	-0.169
CTCGTCGA	-0.0514
GCCTCCCC	-0.2
CTATTCGC	0.0783
GTAATCAA	0.102
AACTATCT	-0.0223
CCCCCTGC	-0.381
AGTCCTGC	0.0243

Sequence	PBM E-score
CTGAGCAC	-0.206
ACAGAGTG	0.0421
AGAATAAA	0.19
GTGCCTAA	-0.0609
AATGATAT	0.155
AGGGACAT	0.488
GACGGCTA	-0.12
TAAGAATA	-0.0196
ATGCGTCG	0.153
CATGCCCG	0.0245
GCAAAATA	0.192
GCAATAGC	-0.231
ATCAGTAA	-0.066
CGCAATGA	0.1
CTTCTTCA	-0.18
GGTCGACC	0.0655
CATCATAA	0.161
CCAGAAAA	0.059
CTAATGAC	-0.12
CCGTGGTA	-0.147
AACGGCCC	-0.337
CAGTAAAA	0.185
ACGGTATC	-0.0322
ATCGTGAA	0.0393
CCGATAGA	0.105

Sequence	PBM E-score
CAACAACG	0.0487
CCTTTAGA	-0.097
TCACAGCA	0.0126
GAATTAGC	-0.0723
AAAGTAAT	0.209
AGAAGTAC	-0.0605
GAGATCAC	-0.035
TGCGCAAA	0.139
AACACACA	0.133
GCGGTACC	-0.102
GTCGTGAA	0.0457
TGCCAGCA	-0.0784
CAAGGTTA	-0.058
CAGACCAA	0.0863
ACCTCCGC	-0.0319
CAAGCACA	-0.00806
AATAATTG	0.229
CTTGTTCA	-0.0388
CCGTACGG	-0.199
ACAGTGGG	-0.0906
AAAGTATA	-0.0125
ATAACGAA	0.107
AACGGCGG	-0.104
CAACAGGG	-0.184
AGCGACCG	0.0133

Sequence	PBM E-score
GTGCACAA	-0.0401
AGTACCGC	-0.00702
ATGGTCGG	-0.0896
ATTGTCTG	0.34
CAGAAAGC	-0.0396
GGTTTAAA	0.16
ACGTCGAA	0.0529
AAGTCCGT	0.224
CAATATAG	0.0304
CTGCACTA	0.212
AGGCATAA	-0.118
AACTCTGA	0.196
AGATCTTG	-0.103
ACTAGGAC	0.426
GAAAGTGA	0.0539
AACCAGAA	0.12
AAATTACT	0.0929
CTGAATTA	-0.0118
CTGCTAGC	-0.214
AGCGCAAT	0.0013
CCGACCAC	0.00118
CAGCAAAC	-0.0316
GATATGTA	0.12
CCCTACTA	-0.182
CGGCTCGC	0.0636

Sequence	PBM E-score
CATTGAAG	-0.031
TTAGCGAA	0.0478
ACTTTTAT	0.185
ATCATTTG	0.0889
GGGTAATA	-0.0334
TGGGTACA	0.142
TAGCGTGA	-0.0734
AATAAGAT	0.0902
CGATACGA	0.0206
ATGCTGAC	-0.0547
GAAGTAGA	0.114
ACAAGCAT	0.1
AGCCACAG	-0.271
TCACTGCA	0.173
TAAACGGA	0.177
CGATGCTC	-0.191
CCCCTACC	-0.3
ACAAAAAG	0.216
CAATTCCA	-0.0856
CTTACTGA	-0.0638
CGTTATGC	-0.201
ACTTTGTA	0.129
CGGCCTAC	-0.0105
ATCTACAC	0.00502
CCCGATAG	-0.115

Sequence	PBM E-score
GTTACATA	0.0624
ACTTTGTG	0.0353
GCCTGCAC	-0.209
ACGCGGGA	0.0676
ACCAAATA	0.0773
CGCCACGA	-0.0719
AACGGATG	0.0907
CGTCTACA	-0.13
CTCTCATA	-0.111
GTTCGGTA	0.142
TGGCCGAA	0.0465
CATGACAC	0.193
CGATGCTA	-0.00656
CCCTAAGC	-0.243
CAGGGTGA	-0.271
CGTGCGCA	-0.0408
CCAACATA	0.133
CAAGTCTG	-0.106
AGTCGCTC	-0.132
ATCTGAAC	-0.103
ACTTCTGG	-0.00562
CAGCATTC	-0.204
CCTACGCA	-0.0988
TAACTTGA	0.111
CGTCTTCC	-0.106

Sequence	PBM E-score
GCCATCAA	0.0351
AGCCTACT	-0.232
ATCGTCCC	-0.00418
AAGCGTCG	-0.0583
GTTGCCGA	0.104
GACCGAGA	0.174
AACCTCGC	-0.0613
CCCTCCAG	-0.397
AAGGTGAT	-0.0893
CGTGCCAG	-0.149
AGGCAGCA	-0.00913
ACCACAAA	0.104
CCTTAGAC	-0.0312
AATATAAT	0.165
CCGACGAC	-0.0326
CTCCATTA	-0.168
TAGTAGGA	0.0267
TCCAACAA	0.0926
ACTAACAA	0.143
GAATTCGC	0.0812
ATGCTCCA	-0.151
AAAAGAGG	-0.179
CGACGCCG	0.0839
CAATCTCG	0.112
GACGTATC	-0.0997

Sequence	PBM E-score
AAGGACGA	0.0414
AGGTATAC	0.0069
ACCGGGCC	-0.13
ACCGACAC	0.152
GCTTTGAC	0.0601
AGGCCTCG	-0.199
AATATTCG	0.119
AGATGACT	-0.283
GCAAACGC	0.123
CCCTACCC	-0.246
GACGTGCA	0.124
CAATGCGC	0.142
TGGGAAAA	-0.135
TCTCAGAA	-0.0134
AATATTGA	0.198
AAGCATTA	-0.0789
TCAAGTGA	0.0446
CTACGGGC	-0.338
ACACCGTA	-0.0815
ACTTCGCA	0.03
CAGGTAGC	-0.0607
CCTCATCC	-0.351
CTGGGGAA	-0.417
AGAACCTC	-0.122
TAATTGTA	0.18

Sequence	PBM E-score
CCGTAGCG	-0.107
ATCATCAC	0.04
ACAGAAGA	0.0289
GTACGCTA	-0.0968
CCACAAAG	0.0847
CCGAATAA	0.156
ACCCACAT	0.0586
ACGGTGTG	-0.0943
ACATTTTG	0.34
TCCTCAGA	0.083
CGCGCAAG	0.0558
CAACAACC	-0.00184
CCTCTGAC	-0.0611
CTAAGTTA	0.0942
AAGATCAT	0.0396
CGAGCCAC	-0.079
CTGCGAAG	-0.179
AACAGAGC	-0.0188
ATAGACGC	0.112
ATCAGGAA	-0.0755
CCGCTGCA	-0.0969
CTGTGACA	0.316
AACATCTG	-0.0495
AGCCGAGA	-0.0207
GGCACCCC	-0.342

Sequence	PBM E-score
ATGCCCCA	-0.222
CGACTAGC	-0.201
AGACACGG	0.16
CTGTCTTA	0.181
CAAGGAGG	-0.025
AATCTTCT	-0.0303
AGAATCCG	0.0519
TCGGGAGA	0.014
GATTTAAA	0.00211
CGTCTTGC	-0.0596
GCCCTTTA	-0.318
GCTTGTTA	-0.0427
AATAAGCT	0.0203
ACCACCAT	-0.19
GCTATAGC	-0.284
CCCCAGTC	-0.265
CAGCAATA	0.0275
AAGCTAGG	-0.0282
TTCACGAA	0.0509
